Reference: the RNAGym collection of RNA variant scans (doi:10.7554/elife.90254)
Read counts are not given, so values of variants with three or more changes are uncertain.

B1: OR4K15 (parent)
chain: GUUAACGGUCAUAGGCCAUGGAAACUAGGAGCACCAUUUCGCUGCCAGUGAAGAAAUGAACAAAGAAAAUCUGGGCCAGGCAGGCAUCAAAAGAAAUAGUCUUGCGCUCAACCAGAAAGUCUGUAAUCAUUUUAAGGGUA

Variants of: B1
Test: self-cleavage, relative activity (ratio to wild type); higher = more cleavage; in vitro, sequencing; the parent is a self-cleaving ribozyme

Row | Variant | self-cleavage
1 | GUUAACGGUCAUAGGCCAUGGAAACUAGGAGCACCACCUCGCCGCCAGUGAAGAAAUGAGCAAAGAAAAUCUGGGCCAGGCAGGCAUCAAAAGAAAUAGUCUUGCGCCCAACCAGAAAGUCUGUAAUCACUUUAAGGGUA | 0.02
2 | GUUAACGGUCAUAGGCCAUGGAAACUAGGAGCACCAUUUCGCUGCCAGUGAAGAAAUGAACAAGGAAAGUCUGGGCCAGGCAGGCAUCAAAAGAAAUAGUCUUGCGCUCAACCAGAAAGUCUGUAGUCAUUUUAAGGGUA | 0.64
3 | GUUAACGGUCAUAGGCCAUGGAAACUAGGAGCACCAUUUCGCCGCCAGUGAAGAAAUGAACAAAGAAAAUCUGGGCCUGGCAGGCAUCAAAAGAAAUAGUCUUGCGCUCAACCAGAAAGUCUGUAAUCAUCUUAAGGGUG | 0.06
4 | GUUAACGGUCAUAGGCCAUGGAAACUGGGAGCACCAUUUCGCUGCCAGUGAAGGAAUGAACAAAGAAAAUCUGGGCCAGGCAGGCAUCAAAAGAGAUAGUCUUGCGCUCAACCAGAAAGUCCGUAAUCAUUUUAAGGGUA | 1.17
5 | GUUAACGGUCAUAGGCCACGGAAACUAGGAGUACCAUUUCGCUGCCAGUGAAGAAAUGAACAAAGUAAAUCUGGGCCAGGCAGGCAUCAGAAGAAAUAGUCUUGCGCUCAACCAGAAAGUCUGUAAACAUUUUAAGGGUA | 1.92
6 | GUUAACGGUCAUAGGCCGUGGAAGCUAGGAGCACCAUUUCGCUGCCAGUGAAGAAAUGAACAAAGAAAAUCUGGGCCAGGCAGGCACCAAAAGAAAUAGCCUUGCGCUCAACCAGAAAGUCUGUAAUCAUUUUAAGGGUA | 1.79
7 | GUUAACGGUCAUAGACCAUGGAAACUAGGAGCACCAUUUCGCUGCCAGUGAAGAAAUGAACAAAGAGAAUCUGGGCCAGGCAGGCAUCAAAAGAAAUAGUCUUGCGCUCAACCAGAAGGUCUGUAAUCAUUUUAAGGGUA | 1.34
8 | GUUAACGGUCAUAGGCCGUGGAAACUAGGAGCACCAUUUCGCUGCCAGUGAAGAAAUGAACAAAGAAAAGCUGGGCCAGGCAGGCAUCAAAAGGAAUAGUCUUGCGCUCAACCAGAAAGUCUGUAAUCAUUUUAAGGAUA | 1.07
9 | GUUAACGGUCAUAGGCCAUGGAAACUAGGAGCACCACUUCGCUGCCAGUGAAGAAAUGAACGAAGAAAAUCUGGGCCAGGCAGGCAUCAAAAGAAAUAGUCUUGCGCCCAACCCGAAAGUCUGUAAUCAUUUUAAGGGUA | 0.01
10 | GUUAACGGUCAUAGGCCAUGGAAACUAGAAGCACCAUUUCGCUGCCAGUGAAGAAAUGAACAAAGAGAAUCUGGGCCAGGCAGGCAUCAAAAGAAAUAGUCUUGCGCUCAACCAGAAAGUCCGUAAUCAUUUUAAGGGUA | 0.84
11 | GUUAACGGUCAUAGGCCAUGGAAACUAGGAGCACCACUUCUCUGCCAGUGAAGAGAUGAACAAAGAAAAUCUGGGCCAGGCAGGCAUCAAAAGAAAUAGUCUUGCGCUCAGCCGGAAAGUCUGUAAUCAUUUUAAGGGUA | 0.01
12 | GUUAACGGUCAUGGGUCAUGGAGACCAGGAGCACCAUCUCGCUGCCAGUGAAGAAAUGAACAAAGAAAAUCUGGGCCAGGCAGGCAUCAGAAGAAUUAGUCUUGCGCUCGACCAGAAAGUCUGUAAUCAUUUCAAGGGUA | 0.04
13 | GUUAACGGUCAUAGGCCAUGGAAACUAGGAGCACCAUUUCGCUGCCAGUGAAGAAAUGAACAAAGAAAAUCUGGGCCAGGCAGGCAUCAAAAGAAAUAGUCUUGCACUCAGCCAGAAAGUCCGUAAUCAUUUUAAGGGUA | 0
14 | GUUAACGGUCAUAGGCCAUGGAAACUUGGAGCACCAUUUCGCUGCCAGUGAAGAAAUGAACAAAGAAGAUCUGGGCCAGGCGGGCAUCAAAAGAAAUAGUCUUGCGCUCAACCAGAAAGUCUGUAAUCAUUUUAAGGGUA | 0.55
15 | GUUAACGGUCAUAGGCCAUGGAAACUAGGAGCACCAUUUCGCUGCCGGUGAAGAAAUGAACAAGGAAAAUCUGGGCCAGGCGGGCAUCAAAAGAAAUAGUCUUGCGCUCAACCAGAAAGUCUGUAAUCAUUUUAAGGGUA | 0.67
16 | GUUAACGGUCAUAGGCCAUGGAAACUAGGAGCACCAUUUCGCCGCCAGUGAAGAAAUGAGCAAAGAAAAUCUGGGCCAGGCAGGCAUCAAGAGAAAUAGUCUUGCGCUCAACCAGAAAGUCUGUAAUCACUUUAAGGGUA | 0.28
17 | GUUAACGGUCAUAGGCCAUGGAAACUAGGAGCACCAUUUCGCCGCCAGUGAAGAAAUGACCAAAGAAAAUCUGGUCCAGGCAGGCAUCAAAAGAAGUAGUCUUGCGCUCAACCAGUAAGUCAGUAAUCAUUUUAAGGGUA | 0.03
18 | GUUAGCGGUCAUAGGCCAAGGAAACUAGGAGCACCAUUUCGCUGCCAGUGAAGAGAUGAACAAAGAAGAUCUGGGCCAGGCAGGCAUCAAAAGAAAUAGUCUUGCGCUCAACCAGAAAGUCUGUAAUCAUUUUAAGGGCA | 0.87
19 | GUUAACGGCCAUAGGCCAUGGAAACUAGGAGCACCAUUUCGCUGCCAGUGAGGAAAUGAACAAGGAAAAUCUGGGCCAGGCAGGCAUCAAAAGAAAUAGUCCCGCGCUCAACCAGAAAGUCUGUAAUCGUUUUAAGGGUA | 0.54
20 | GUUAACGGUCAUAGGCCGUGGAAACUAGGAGCACCAUUUCGCUGCCAGUGAAGAAAUGAACAAAGAAAAUCUGGGCCAGGCAGGCAUCAGAAGAAAUAGUCUUGCGCUCAACCAGAAAUUCUGUAAUCAUUUUAAGGGUA | 1.38
21 | GUUAACGGUCAUAGGCCAAGGAAACUAGGGGCACCAUUUCGCUGCCAGUGAAGAAAUGAAUAAAGAAAAUCUGGGCCAGGCAGGCAUCAAAAGAAAUAGUCUUGCGCUCAACCAGAAAGUCUGUAAUCACUUUAAGGGUA | 0.32

Row | Variant | self-cleavage
22 | GUUAACGGUCAUAGGCCAUGGAAACUAGGAGCACCAUUUCGCUGCCAGUGAAGAAAUGAGCAGAGAAAAUCUGGGCCAGGCAGGCAUCAAAAGAAAUAGUCUUGCGCUCAACCGGAAGGUCUGUAAUCAUUUUAAGGGUA | 0.68
23 | GUUAACGGUCAUUGGCCAUGGGAACUAGGAGCACCAUUUCGCUGCCAGUGAAGAAAUGAACAAAGAAGAUCUGGGCCAGGCAGGCAUCAAAAGAAAUAGUCUUGCGCUCAACCAGAAAGUCUGUAAUCAUUUCAAGGGUA | 2
24 | GUUGACGGUCAUAGGCCAUGGAAACUAGGAGCACCAUUUCGCCGCCAGUGAAGAAAUGGACAAAGAAAAUCUGGGCCAGGCAGGCAUCAAAAGAAAUAGUCUUGCGCUCAACCAGAAAGUCUGUAAUCAUUUUAAGGGUA | 2.09
25 | GUUAACGGUCAUAGGCCAUGGAAACAAGGAGCACCAUUUCGCUGCCAGUGAAGAAAUGAACGAAGAGAAUCUGGGCCAGGCAGGCAUCAAAAGAAAUAGUCUUGCGCUCAACCAGAAAGUCUGUAAUCAUUUUAAGGGUA | 1.55
26 | GUCAACGGUCAUAGGCCAUGGAAACUAGGAGCACCAUUUCGCUGCCAGUGAAGAAAUGAACGAAGAAAAUCUGGGCCAGGCAGGCAUCAAAAGAAGUAGUCUUGCGCUCAACCAGAAAGUCUGUAAUCAUUUUAAGGGUA | 0.92
27 | GUUAACGGUCAUAGGCCAUGGAAACUAGGAGCACCAUUUCGCUGCCAGUGAAGAAAUGAACAAAGAAAAUCUGGGCCAGGCAGGCACCAGAAGAAAUAGUCUAGCGCUCAACCAGAAAGUCUGUAAUCAUUUUAAGGGUA | 0.1
28 | GUUAACGGUCAUAGGCCAUGGAGACUAGGAGCACCAUUUCGCGGCCAGUGAAGAAAUGAACAAAGAAGAUCUGGGCCAGGCGGGCACCAAAAGAAAUAGUCUUGCGCUCAACCAGAAAGUCUGUAAUCAUUUUAAGGGUA | 0.9
29 | GUUAACGGUCAUAGGCCAUGGACACUAGGAGCACCAUUUCGCUGCCAGUGAAGAAAUGAACAAAGGAAAUCUGGGCCAGGCAGGCAUCAAAGGAAAUAGUCUUGCGCUCAACCAGAAAGUCUGUAAUCAUUUUAAGGGUA | 0.56
30 | GUUGACGGUCGUAGGCCAUGGAAACUAGGAGCACCAUUUCGCUGCCAGUGAAGAAGUGAACAAAGAAAAUCUGGGCCAGGCAGGCAUCAAAAGAAAUAGUCUUGCGCUCAACCAGAAAGUCUGUAAUCAUUUUGAGGCUA | 0.85
31 | GUUAACGGUCAUAGGCCAUGGAGACUAGGAGCACCAUUUCGCUGCCAGCGAAGAAAUGAACGAAGAAAGUCUGGGCCAGGCAGGCGUCAAAAGAAAUAGUCUUGCGCUCAACCAGAAAGUCUGUAAUCAUUUUAAGGGUA | 0.55
32 | GUUAACGGUCAUAGGCCAUGGAAACUAGGAGCACCAUUUCGCUGCCAGUGAGGAGAUGAACAAAGAAAAUCUGGGCCAGGCAGGCAUCAAAAGAAAUAGUCUUGCGCUCAACCAGCAAGUCUGUAAUCAUUUUAAGGGUA | 0.01
33 | GUUAACGGUCAUAGGCCACGGAAACUAGGAGCACCAUUUCGCUGCCAGUGAAGAAGUGAACAAAGAAAAUCUGGGCCAGGCAGGCAUCUGAAGAAAUAGUCUUGCGCUCAAGCAGAAAGUCUGUAGUCAUUUUAAGGGUA | 0
34 | GUUAACGGUCAUAGGCCAUGGAGACUAGGAGCACCAUUUCGCUGCCAGUGAAGAAAUGAACAAAGAGAAUCUGGGCCAAGCAGGCAUCAAAAGAAAUAGUCUUGCGCUCAACCAGAAAGUCUGUAAUCAUUUUAAGGGUA | 0.22
35 | GUUAGCGGUCAUAGGCCAUGGAAACUAGGAGCACCAUUUCGCUGCCAGUGAAGAAAUGAACAAAGAAAAUCUGGGCCUGGCAGGCACCAAAAGAAAUAGUCUUGCGCUCAACCAGAAAGUCUGUAAUCAUUUUAAGGGUA | 0.44
36 | GUUAACGGUCAUAGGCCAUGGAAACCAGGAGCACCAUUUCGCUGCCAGCGAAGAAAUGAACAAAGAAAAUCUGGGCCAGGCAGGCAUCAAAAGAAAUAGUCUUGCGCUCAGCCAGGAAGUCUGUAGUCAUUUUAAGGGUA | 0
37 | GUUAACGGUCAUAGGCCAUGGAAACUAGGAGCACCAUUUCGCUGCCAGUGAAGAAAUGAACAAAGAAAAUCUGGGCCUGGCAGGCAUAAAAAGGUAUAGUCUUGCGCUCAACCAGAAAGUCUGCUAUUAUUUUAAGGGUA | 0.17
38 | GUUAACGGUCAUAGGCCAUGGAAACUAGGAGCACCAUUUCGCUGCCAGUGAAGAAAUGAACAAAGAAAAUCUGGGCCAGGCAGGCAUCAAAGGAAAUAGUCUUGCGCUCGACCAGAAGGCCUGUAAUCUUUUUAAGGGUA | 0.02
39 | GUUAACGGUCAUAGGCCAUGGAAACUAGGAGCACCAUUUCGCUGCCAGUGAAGAAAUGAACAAAGAAAAUCAGGGCCUGGCAGGCAUCAAAAGAAAUAGUCUUGCGCUCAACCAGAAAGUCUGUAAUCAUUUUAAGGGUC | 0.14
40 | GUUAACGGUCAUAGGCCACGGAAACUUGGGGCACCAUUUCGCUGCCAGUGAAGAAAUGAACAAAGAAAAUCUGGGCCAGGCAGGCAUCAAAAGAAAUAGUCUUGCGCUCAACCAGAAAGUCUGUAAUCAUUUUAAGGGUA | 0.45
41 | GUUAACGGUCAUAGGCCGUGGAAACAAGGAGCACCAUCUCGCCGCCAGUGAAGAAAUGAACAAAGAAAAUCUGGGCCAGGCAGGCAUCAAAAGAAAUAGUCUUGCGCUCAACCAGAAAGUCUGUAAUCAUUUUAAGGGUA | 0.97
